Laboratory results taken from PubChem BioAssay AID504832 (National Center for Advancing Translational Sciences (NCATS), 2011).
Screen size: about 310,000 compounds; about 18,000 (5.8%) were called active. Inconclusive means that the source gave no clear call. Such entries were picked first, then a sample of the others. Calls follow the shape of the dose curve; as a rule, active = well fitted inhibition curve with a large enough effect; inconclusive = small, poorly fitted or top-dose-only effect, or another doubt; inactive = no such curve, though single readings can be large or run the other way. No potency is given beside an inconclusive call; the fits are too rough.

Assay: Primary qHTS for delayed death inhibitors of the malarial parasite plastid, 48 hour incubation
Details: P. falciparum luciferase growth in erythrocytes; series mostly up to 28.7 µM
In short: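 Luciferase-expressing P. falciparum in infected erythrocytes (2% hematocrit, 0.1% parasitemia final) in RPMI 1640/0.5% Albumax were exposed to compound for 48 hours at 37 C, 5% CO2; growth read as luminescence.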
Potency is read from the fitted curve at half-maximal effect; tags tell the direction and shape of the fitted curve.

| SMILES | Potency |
| --- | --- |
| CCN(CC)c1ccc(NC(=O)CN2CCN(CC(=O)Nc3ccc(F)cc3)CC2)cc1 | inconclusive [inhibitor, partial curve] |
| CCOC(=O)c1c(N)sc(C(=O)N2CCCCC2)c1C | inactive |
| CCc1cccc(C)c1NC(=S)NCc1ccc2c(c1)cc(C)n2C | inconclusive [inhibitor, partial curve] |
| COC(=O)c1ccc(CN2CCN(Cc3ccc(C(=O)OC)o3)CC2)o1 | inactive |
| CC1(C)CC2(C)OC(=N)C1(C#N)C2(C#N)C#N (configuration not stated) | inactive |
| CC(C)(C)c1nn2cnnc2n(/N=C/c2ccc(O)cc2)c1=O | inactive |
| CCn1cc(C(=O)NC(C)C)c(=O)c2cc(F)c(N3CCN(C(=O)c4ccco4)CC3)cc21 | active: 5.22 µM |
| CC(=O)c1cccc(NC(=O)c2ccc(NC(=O)CCS(=O)(=O)c3cccs3)cc2)c1 | inconclusive [inhibitor, single point] |
| O=C1NC(=O)/C(=C/c2ccc(N3CCOCC3)o2)N1 | active: 1.47 µM |
| Cc1cc(C)cc(NS(=O)(=O)c2ccc3c(c2)c(=O)n(C)c(=O)n3C)c1 | active: 11.7 µM |
| Cc1ccccc1C(=O)NCCNC(=O)c1cnccn1 | inactive |
| O=C(Nc1ccc(OC(F)(F)F)cc1)Nc1cccnc1 | inconclusive [inhibitor, single point] |
| Cc1nc2cc(-c3cccc(F)c3)nn2c(C)c1CCC(=O)N1CCC2(CC1)OCCO2 | inconclusive [inhibitor, full curve, poor fit] |
| Cc1ccccc1Nc1nc(-c2cccnc2)nc2ccccc12 | inconclusive [inhibitor, single point] |
| O=C(Nc1ccc(Cl)cc1)C1CCCN(C2=NS(=O)(=O)c3ccccc32)C1 (configuration not stated) | inactive |
| CC1=C(C(=O)Nc2ccccc2C(=O)NC2CCC(C)CC2)SCCO1 (configuration not stated) | inactive |
| Cc1c(Cl)cccc1N1C(=O)CC(N(O)c2ccccc2)C1=O (configuration not stated) | inactive |
| CCOC(=O)[C@H]1[C@H]2COc3ccc(Cl)cc3[C@@H]2N2C(=O)c3ccccc3NC(=O)[C@@]12C | inconclusive [inhibitor, single point] |
| Cc1ccc(C(CC(=O)N2CCNCC2)c2ccccc2)c(O)c1C (configuration not stated) | inconclusive [inhibitor, single point] |
| COc1cccc(NC(=O)CN(C)C(=O)c2oc3c(ccc4ccccc43)c2C)c1 | active: 0.262 µM |
| CCOC(=O)C1CCN(S(=O)(=O)c2c[nH]c(=O)[nH]c2=O)CC1 | inactive |
| Cc1nn(C)cc1C(=O)/C=C/c1ccc([N+](=O)[O-])cc1 | active: 13.1 µM |
